Data published in PubChem BioAssay (NCI).
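1) Cells in 96-well plates. 2) Compound, 48 h, 5 concentrations. 3) Linear interpolation between surrounding doses. 4) Unreached endpoint = highest concentration. GI50 = concentration required for 50% inhibition of growth. TGI: concentration producing complete growth inhibition.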

What follows are molecules tested on NCI-H322M lung (assay: DTP human tumour cell line panel, 48 h).

| Structure (SMILES) | GI50 | TGI |
| --- | --- | --- |
| CCNCCCn1c2c(c3cc(OC)c(OC)cc3c1=O)C(=O)c1cc(OC)cnc1-2 | 1540 nM | > 52800 nM |
| CC1=CC(=O)CC(C)(C)[C@@]1(O)/C=C/C(C)=C\C(=O)O | 895 nM | 2870 nM |
| C#Cc1nc(/C=C/C(=O)NO)cs1 | 5860 nM | > 100000 nM |
